From paper PMC12136788 come the findings set out here.

The chains are these.
T1: UNK ZnF1-3 (human, UniProt Q9C0B0 31-174)
T1 sequence: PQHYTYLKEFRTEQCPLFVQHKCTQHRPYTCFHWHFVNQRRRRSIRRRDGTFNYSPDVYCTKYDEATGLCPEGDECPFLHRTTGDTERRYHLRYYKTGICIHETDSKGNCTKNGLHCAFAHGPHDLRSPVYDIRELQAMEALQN

B1: chr12:39763582:39763583:-_ENSG00000139116_ENST00000544797|hu_mus|hu_hu_hu_mus_False|8_48 (ssRNA)
RNA: GGGAGUUCUACAGUCCGACGAUCCUCUAGGAACUGGGCAUUCACUUUGAAUUCAGGAGGGGGCAGCCCGUUUUUAAUCGCUGAGGUUUUUUUUUCUUCAAUACUCUUGAACAGGUGUCUAACAGCACGAGAAAUAAUGCCCUGCAACAGAGGAUUGAGCAUCA
B2: 148364729_148364849_12330_CDS_ENSMUSG00000025261_ENSMUST00000112622|mouse|control|control (ssRNA)
RNA: GGGAGUUCUACAGUCCGACGAUCGUAGCACUCCAGGAGGCGGUUGUCAUAUACAGCUUUGGCUACAAUUCGUCCAACAAACUUGAAGUAGCUGAGGUGGUUGGGGUUACAGUGGGAAGAUGGAUUGAUGGUGUAGGUGACCCGCAACAGAGGAUUGAGCAUCA
B3: chr15:64983782:64983783:-_ENSG00000180304_ENST00000326005|perfect_dup|FALSE|FALSE (ssRNA)
RNA: GGGAGUUCUACAGUCCGACGAUCCCUGGAACAAUGUGCCUGCAGCACUGGAGCUGGGGACAGUUACUCAAAGGCAAAAUACUACUGUCCUGGGUGUUUAUCAUCCUCGGCGGCUCUGCUCAGGGUGGGAGGAGGCGGCGCAGGCAACAGAGGAUUGAGCAUCA
B4: 46067222_46067342_971_CDS_ENSMUSG00000015880_ENSMUST00000117396|mouse|control|control (ssRNA)
RNA: GGGAGUUCUACAGUCCGACGAUCGAGAGGAGUCAUUGAGAAUAAGGAAUGGAGAACGGAGACUGCUACAUCAGAAGAAUUUUCCACAUCCAACCGAUGAAGAAACUCUAGAAUAUUCCCUUCAGUGAAACGCAACCAGCCUUGCAACAGAGGAUUGAGCAUCA
B5: chr12:3252685:3252686:-_ENSMUSG00000020671_ENSMUST00000021001|perfect_dup|FALSE|FALSE (ssRNA)
RNA: GGGAGUUCUACAGUCCGACGAUCUAACGUGAGGAACGCCUUUUCGAUGUUUAUAUUUGCUUUUGCACUAGUCUCAAAAAACCUAAUACCAUGCUCCCUUGCAAUCUGUUCUCCUUUUCCUUUAGGUACAACUCUUUUGUCGUCCAACAGAGGAUUGAGCAUCA
B6: chr1:163117052:163117053:-_ENSG00000143248_ENST00000313961|hu_mus|FALSE|FALSE (ssRNA)
RNA: GGGAGUUCUACAGUCCGACGAUCACACAGCCUGUGGUUUGCCUAUGUUUGUGUAUCUUGGAGCAAAGCUGCUAUGGAGAACUGUGCAGGUGCCUGGGAGGAUGCUGUGUUGCUACAAAGGAUGUAACUCAACUCACAGGGCAACAACAGAGGAUUGAGCAUCA
B7: chr18:45374997:45374998:-_ENSG00000175387_ENST00000586040|hu_mus|FALSE|FALSE (ssRNA)
RNA: GGGAGUUCUACAGUCCGACGAUCCGAGGGCUGUGACGCAUGGAAGGUCUCUCCAACCCUCUGGUUUAGUUCAUAGUAUGCGAUUGAACACCAGAAUGCAGGUUCCGAGUAAGUAACUGGCUGCAAAUCCAAGCUGUGAUUAACCAACAGAGGAUUGAGCAUCA
B8: chr7:149068622:149068623:-_ENSMUSG00000025139_ENSMUST00000001950|mus_hu|mus_mus_mus_hu_False|28_98 (ssRNA)
RNA: GGGAGUUCUACAGUCCGACGAUCGUGAGGCCUCUGAGUGAGGUUCCUGGUCUGUCCUGGGUUAGAGUUGUUAAUAUCACGGAACAUACCAUCUAGAACGUUCCAGUCUGCCUGACUACCUUCAUUCCCAAUGGAGAAGAAAUCCAACAGAGGAUUGAGCAUCA
B9: chr20:17587764:17587765:+_ENSG00000125868_ENST00000474024|hu_mus|motif|central (ssRNA)
RNA: GGGAGUUCUACAGUCCGACGAUCGCACUGACUGGCGGUCUACACAGGGGAUCCUUCAAAGGCUACAAUUAAGGAGCCACCGGGCUUUUCAGCAAUACAGGUCCGAUUGAGGUCUUCUGGCCCAUUUGCUUGAUACUCAUGCUUCAACAGAGGAUUGAGCAUCA
B10: chr7:157177620:157177621:+_ENSG00000105993_ENST00000429029|hu_hu|motif|central (ssRNA)
RNA: GGGAGUUCUACAGUCCGACGAUCGCCCAUGCCACUACCACCAAAUGACGUGGAAGAGAAUGAAGUGAGGCCCCCGUGACCGGGUGACCCAAAUGAAGUAAAUCCUGUAUCAAAAGAAGAAAAUCCACUUCCAAAAGACGGAAACAACAGAGGAUUGAGCAUCA
B11: 49896483_49898194_992_3pUTR_ENSMUSG00000055447_ENSMUST00000084838|mouse|control|control (ssRNA)
RNA: GGGAGUUCUACAGUCCGACGAUCCCAAACCUGAAAUCAAAAGGGGGCCGUGCACUGGCUCACAUGCCAUGAUGCAGAGACACAGCCCGACCAAAGCAAGGACGUAGCCCAGCACUUGAGUGAUCAAUAUGGCAAUGGUGAAAGCAACAGAGGAUUGAGCAUCA
B12: chr16:94664741:94664742:+_ENSMUSG00000040785_ENSMUST00000117648|mus_hu|mus_mus_mus_hu_False|88_98 (ssRNA)
RNA: GGGAGUUCUACAGUCCGACGAUCUGGUACUGAUCUUUGCAUUGGAUACUCAGAAGAAAGGCUGGCCAAGGGUGUAUAUAUGCUGGUGUACUGGGGCAAACCUGGUAACACGUUUAUGUAUGCUGGCGGUGUCUGGGUGAUAUCCAACAGAGGAUUGAGCAUCA
B13: chr16:29586362:29586363:+_ENSMUSG00000038084_ENSMUST00000160597|mus_hu|motif|central (ssRNA)
RNA: GGGAGUUCUACAGUCCGACGAUCGCCACCCCCAACAGCCGAUCCUAGUAUGAGAUAGCGAAGUUUUAAGAGUCUCGUAGCGGAUCUUGCUGGCCAAAAAUUCCUGCGAGGCUGGUAGCCAUAUUUAAUUGGAGAGAAUUUCAGCAACAGAGGAUUGAGCAUCA
B14: chr14:21319760:21319761:-_ENSMUSG00000021816_ENSMUST00000161445|mus_hu|motif|central (ssRNA)
RNA: GGGAGUUCUACAGUCCGACGAUCAGCCAGCAGCAAAUCACCCUGGUGGCUCUCUAAGCAACUUGAGUACUCACAAUAAACGGAAAUUUCUCAUAACAUCUAGGUAACCUAUACAUGUCGUACCUGUACAUCAUAGGUCUAUAUCAACAGAGGAUUGAGCAUCA

The other results are listed elsewhere or left out.

In this test the target is T1, UNK ZnF1-3. Nature of the test: nsRBNS (natural sequence RNA bind-n-seq); RBNS binding buffer (assumed for nsRBNS): 25 mM Tris pH 7.5, 150 mM KCl, 3 mM MgCl2, 0.01% Triton X-100, 500 ug/ml BSA, 20 U/ml SUPERase-In, 4 C; UNK is unkempt and MSI1 is Musashi-1; names of the RNAs are library labels; protein concentration not given here; high values mean tight binding.
As to B1, the binding signal came out at 1.53 enrichment R. The molecule B2 yielded a binding signal of 1.46 enrichment R.

Molecule B3 displayed a binding signal of 1.19 enrichment R. The same measure for B4: 1.99 enrichment R; for B5: 0.481 enrichment R.

With B6, the binding signal was determined as 1.71 enrichment R. With B7 the figure was 0.996 enrichment R; with B8, 0.689 enrichment R; with B9, 1.06 enrichment R. The same measure for B10: 1.21 enrichment R; for B11: 1.44 enrichment R; for B12: 1.14 enrichment R. As for B13, the binding signal worked out at 1.53 enrichment R.

For B14, the binding signal worked out at 0.771 enrichment R.
